Experimental data published in PubChem BioAssay AID995 (National Center for Advancing Translational Sciences (NCATS), 2007).
The whole screen tested about 72,000 compounds, of which about 710 (0.99%) were called active. Inconclusive means that the source gave no clear call. Such entries were picked first, then a sample of the others. The call rests on the fitted dose curve; in most records, active means well fitted inhibition curve with a large enough effect; inconclusive means small, poorly fitted or top-dose-only effect; inactive means no such curve, though single readings can be large or run the other way. Potencies of inconclusive entries are left out as doubtful fits.

Test: qHTS Assay for Inhibitors of the ERK Signaling Pathway using a Homogeneous Screening Assay; further: nearly all actives have a fitted effect of over 55% in size
Details: HEK293-V1b, vasopressin-stimulated pERK AlphaScreen; activity, negative = inhibition: at 57.5 µM (top of the series) unless noted
Procedure, shortened: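 qHTS, compounds titrated on V1b-expressing HEK293 cells. Preincubation 30 min at 37C, vasopressin 25 nM for 5 min, lysis 10 min, bead incubation 5 hr at room temperature.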
On the % scale 0 is the no-effect control and ±100 the full control effect; potency means the concentration at half of the fitted maximal effect; tags describe the fitted curve by direction and shape.

SMILES	Potency	activity, negative = inhibition
COc1cccc(C(=O)/C=C/Nc2cc(C)ccc2O)c1	inconclusive [inhibitor, single point]	–
CCOc1ccc(NC(=O)c2ccncc2)cc1	–	inactive: 10.3%
Oc1ccccc1-c1cc(-c2cccc(F)c2)n[nH]1	inconclusive [inhibitor, single point]	–
O=C(Nn1cnnc1)C(Sc1ccccc1)c1ccccc1 (stereo not drawn)	inconclusive [inhibitor, full curve, poor fit]	–
O=C1c2ccccc2C(=O)N1CCC(=O)N1CCCc2ccccc21	inconclusive [inhibitor, single point]	–
Cc1cccnc1Nc1nc(-c2ccc(O)cc2O)cs1	–	inactive: -8.64%
Cc1cc(N2CCN(C(c3ccccc3)c3ccccc3)CC2)n2ncnc2n1	inconclusive [inhibitor, partial curve]	–
COc1ccc(C(=O)n2nc(-c3ccccc3)nc2N)cc1OC	inconclusive [inhibitor, partial curve]	–
COc1ccc(Nc2ncnc3c2oc2ccccc23)cc1	inconclusive [inhibitor, single point]	–
Cc1nnc2sc(-c3cccc4ccccc34)nn12	–	inactive: -11.8%
CCN(CCCNC(=O)C1CCC(=O)N1C1CCCC1)c1cccc(C)c1 (stereo not drawn)	–	inactive: 29%
CCCCC#Cc1nc(N)c2ncn([C@@H]3O[C@@H](C(=O)NCC)[C@H](O)[C@@H]3O)c2n1	inconclusive [inhibitor, partial curve]	–
CN1CCN(c2ncnc3ccc(-c4ccc5c(c4)OCO5)cc23)CC1	inconclusive [inhibitor, single point]	–
CCOC(=O)c1c(C)oc2ccc(NS(=O)(=O)c3ccc4c5c(cccc35)C(=O)N4)cc12	inconclusive [inhibitor, single point]	–
O=C(CCCOc1ccccc1)Nc1ccncc1	inconclusive [inhibitor, single point]	–
C/C=C1\C(=O)C[C@H]2[C@@H]3CCC4=CC(=O)CC[C@]4(C)[C@H]3CC[C@]12C	–	inconclusive: -30.2% [inhibitor]
Cn1c(=O)c(-c2cccs2)nc2cnc(OCc3ccccc3)nc21	–	inactive: -12.1%
COc1ccc(N2CCN(C(=O)c3ccc(-n4nc(C)cc4C)cc3)CC2)cc1	–	inconclusive: -30.5% [inhibitor]
Cc1noc(C)c1-c1nc(N2CCN(C)CC2)c2ccccc2n1	inconclusive [inhibitor, partial curve, poor fit]	–
O=C(Nc1ccc(NC(=O)C2CCCCC2)cn1)c1ccco1	–	inactive: -17.1%
CC(C)(C)n1ncc2c(=O)n(Cc3ccc(Cl)cc3Cl)cnc21	inconclusive [inhibitor, single point]	–
O=C(NCc1ccco1)c1cccc(-c2nnc(-c3ccccc3)o2)c1	inconclusive [inhibitor, partial curve]	–
O=C(O)COc1ccccc1C1C2C(=O)N(c3ccccc3)C(=O)C2ON1c1ccccc1 (stereo not drawn)	inconclusive [inhibitor, single point]	–
CN(C)c1ccc(Nc2nc(-c3cccnc3)cs2)cc1	inconclusive [inhibitor, full curve, poor fit]	–
COc1ccc(-c2nc(CS(=O)CC(=O)NCc3ccco3)c(C)o2)cc1 (stereo not drawn)	inconclusive [inhibitor, single point]	–

SMILES	Potency	activity, negative = inhibition
O=C1CCCCC1Sc1nnc(Cc2cccs2)n1CCc1ccccc1 (stereo not drawn)	–	inactive: -8.84%
COc1ccc(-c2nc(CSCC(=O)NCc3ccc4c(c3)OCO4)c(C)o2)cc1OC	active: 31.6 µM	–
CCCCS(=O)(=O)c1sc2nc3c(cc2c1N)CCCC3	inconclusive [inhibitor, single point]	–
Cc1nc(C)c(C(=O)Nc2ccccc2)s1	–	inactive: -18.7%
CCCn1c(NCc2ccc(N(C)C)cc2)nc2ccccc21	inconclusive [inhibitor, single point]	–
CCCCOc1ccc(NC2=NC3(CCCC3)N=C(N)N2)cc1	inconclusive [inhibitor, partial curve, poor fit]	–
COc1ccc(NC(=O)N2CC[C@@]3(CCCN(C(=O)c4cc(C(F)(F)F)cc(C(F)(F)F)c4)C3)C2)cc1	inconclusive [inhibitor, partial curve]	–
CCn1c(C)c2c(C)nnc(C)c2c1C	inconclusive [inhibitor, single point]	–
c1ccc2nc3c(nc2c1)[nH]c1ccccc13	–	inactive: 39.9%
CO[C@@H](NC(N)=O)C(=O)O	–	inactive: -21.4% [at 11.5 µM]
Cn1c(=O)c2c(nc(NCCO)n2CCc2ccccc2)n(C)c1=O	inconclusive [inhibitor, partial curve]	–
COc1ccc(C(O)P(=O)(OC2CCCCC2)c2ccc(N(C)C)cc2)cc1OC (stereo not drawn)	–	inactive: -11.2%
O=C(c1ccccc1)N1CCN(c2ccc(NCc3ccc4c(c3)OCO4)cc2)CC1	active: 20 µM	–
COc1ccc(-c2ccc(-c3noc(-c4ccco4)n3)c(OC)n2)cc1	–	inactive: 18%
O=C(CSc1nnnn1Cc1ccccc1)c1ccccc1	–	inactive: 13.7%
COc1ccc2c(c1OC)C(=O)O[C@@H]2[C@H]1c2c(cc3c(c2OC)OCO3)CCN1C	inconclusive [inhibitor, single point]	–
O=C(NCCCN1CCCC1=O)c1ccc2c(=O)n(Cc3ccco3)c(=S)[nH]c2c1	inconclusive [inhibitor, partial curve, poor fit]	–
C(=N\n1cnnc1)/c1cn(Cc2ccccc2)c2ccccc12	–	inactive: -9.88%
CC(C)(C)c1ccc(S(=O)(=O)/C=C\C#N)cc1	active: 31.6 µM	–
Cc1c2c(nc3c(C(=O)NC4CCCCC4C)cnn13)CCCC2 (stereo not drawn)	inconclusive [inhibitor, partial curve, poor fit]	–
COc1ccc(CCNC(=O)c2cc3sccc3n2C)cc1OC	inconclusive [inhibitor, partial curve, poor fit]	–
Nc1ccc(C2CCCc3nonc32)c2nonc12 (stereo not drawn)	inconclusive [inhibitor, single point]	–
CCN(CC(=O)Nc1c(C(=O)OC)[nH]c2ccccc12)c1ccc2c(c1)OCO2	inconclusive [inhibitor, partial curve]	–
CCOc1ccc(OCc2ccc(C(=O)Nc3ccc(Cl)cn3)o2)cc1	–	inactive: -15.2%
Cn1c(COc2ccccc2)nnc1SCc1nc2ccccc2[nH]1	inconclusive [inhibitor, single point]	–

SMILES	Potency	activity, negative = inhibition
COc1ccccc1-c1cc(C(F)(F)F)nc(S(=O)(=O)CCCC(=O)NC(C)C)n1	–	inactive: -15%
O=C1CC(N2CCN(c3nc4ccccc4s3)CC2)C(=O)N1c1ccc(F)cc1 (stereo not drawn)	inconclusive [inhibitor, single point]	–
CS(=O)(=O)N1CCCC(c2nc(-c3ccc(S(=O)(=O)NCc4ccccc4)cc3)no2)C1 (stereo not drawn)	inconclusive [inhibitor, partial curve]	–
Cc1c(C(=O)OCC2CCCO2)[nH]c2c1C(=O)CC(c1ccc(N(C)C)cc1)C2 (stereo not drawn)	active: 25.1 µM	–
COc1ccc(OC)c(S(=O)(=O)N2CCC(C(=O)N3CCN(Cc4ccccc4)CC3)CC2)c1	inconclusive [inhibitor, single point]	–
COc1cccc(C2NC(C(=O)O)CCC2C)c1 (stereo not drawn)	–	inactive: 10.7% [at 11.5 µM]
Cc1nn(CCC(=O)O)c2nc(-c3cccnc3)cc(C(F)(F)F)c12	inconclusive [inhibitor, single point]	–
COC(=O)c1cccc(Nc2nc3ccccc3nc2C)c1	active: 25.1 µM	–
C1=Nc2c(Nc3ccccc3)ncnc2Oc2ccccc21	inconclusive [inhibitor, partial curve]	–
c1ccc(CNc2ncnc3ccc(-c4cccnc4)cc23)cc1	inconclusive [inhibitor, partial curve]	–
O=C(Cl)c1cccc([N+](=O)[O-])c1	–	inactive: -26.5%
c1nc(NC2CC2)c2cc(-c3ccoc3)ccc2n1	inconclusive [inhibitor, single point]	–
c1cnc(N2CCN(Cc3ccc4c(c3)OCO4)CC2)nc1	inactive	–
CCOC(=O)C(C(=O)OCC)c1cc(Br)c2noc3c2c1C(=O)c1ccccc1-3	active: 25.1 µM	–
CC(=O)N1CCc2cc(S(=O)(=O)NC(CC(C)C)C(=O)Nc3cc(C(=O)O)ccc3C)ccc21 (stereo not drawn)	inconclusive [inhibitor, single point]	–
O=C(NC1=NCCS1)c1ccncc1	–	inactive: -13.6%
Cc1cccn2c(=O)c3cc(C(=O)NC4CCCC4)c(=N)n(C4CCCC4)c3nc12	–	inactive: 9.67%
CCc1nc(SCC(=O)Nc2ccc3c(c2)OCCO3)c2oc3ccccc3c2n1	inconclusive [inhibitor, full curve, poor fit]	–
CCOc1ccc(-c2n[nH]c(C)c2-c2ccccc2OC)c(O)c1	inconclusive [inhibitor, single point]	–
Cc1cnc(CNc2cc(-c3ccoc3)ncn2)cn1	–	inactive: -1.44%
C=CCn1c(=O)/c(=C/c2cc(OC)c(OC)c(OC)c2)s/c1=C(/C#N)c1nc2ccccc2n1C	inconclusive [inhibitor, partial curve]	–
COc1ccc2[nH]c(=O)c(CN(C(=O)c3cccnc3)c3ccccc3OC)cc2c1	inconclusive [inhibitor, partial curve]	–
FC(F)(F)c1cc(-c2ccccc2)nc(NCC2CCCO2)n1 (stereo not drawn)	–	inactive: 135%
